# This is one part of the list.
# B1: ENSG00000112339:stop:overlap|stop_codon|ENSG00000112339|stop_codon|NA|stop_codon (ssRNA)
# RNA: GGGAGUUCUACAGUCCGACGAUCUGAAGGACAAGAAUGAGGCAACAGUAUCUACAGGAAAGAUAGCAAAAGGCCCUUGCUGCUAGACCUUCAGCUUUUGCCUCAACACUGUGUCUUCGUUACCCACUGAAAAGCUGCAAGCGACAACAGAGGAUUGAGCAUCA
# B2: ENSG00000101596:stop:overlap|stop_codon|ENSG00000101596|stop_codon|NA|stop_codon (ssRNA)
# RNA: GGGAGUUCUACAGUCCGACGAUCUUAGUUGUAAUAAAAUAAAAGAUAAUGACAAAGAAGAUGGCUGCUUCUAUUUCAGGUUAUAGUUGAAGUCCUGCCUAAUCAACCUGUGAAGUUAGUACCUAAAAUUAAACCACCUACACCCAACAGAGGAUUGAGCAUCA
# B3: chr19:51415897:51416167:-|CDS|ENSG00000142512|control|control|control (ssRNA)
# RNA: GGGAGUUCUACAGUCCGACGAUCGCCACACUGAGCUGGGUCCUGCAGAACAGAGUCCUCUCCUCGUCCCAUCCCUGGGGCCCUAGACCCCUGGGGCUGGAGCUGCCCGGGGUGAAGGCUGGGGAUUCAGGGCGCUACACCUGCCAACAGAGGAUUGAGCAUCA
# B4: chr4:108667468:108667493:+|3pUTR|ENSG00000198856|msi1_unk|total|mutant (ssRNA)
# RNA: GGGAGUUCUACAGUCCGACGAUCGAAUUUUUUUUCCUGCUGGCCUAUUGCUAUACCAAUGAUGUUGAGUGGCAUUUUCUUUUCCGUUUUUCAUUAAAAUAUAUUCCAUAUCUACAACUAUAAUAUCAAAUAAAGUGAUUAUUUCAACAGAGGAUUGAGCAUCA
# B5: chrX:119243754:119243940:+|3pUTR|ENSG00000101856|msi1|total|mutant (ssRNA)
# RNA: GGGAGUUCUACAGUCCGACGAUCAGCUGCAAAAAAGCAUAUUUUCUGUGUUUCUGGACUGCACUGUUGUCCUUGCCCUCACACCGACACUCAGACACCCUCACAAACACAGCCGUCUACCGUCCGGAUUAAAACCGGAUCUGACAACAGAGGAUUGAGCAUCA
# B6: chr8:28970260:28970371:+|CDS|ENSG00000147421|unk|total|mutant (ssRNA)
# RNA: GGGAGUUCUACAGUCCGACGAUCUCUUCCUCUACAGCUACAGCUUCCACACAGACGCAGCAUUCGGGAAUGUCCCCGUCACCCCGCAACAGUUAUGAUACUUCCCCACAGCCUUGCACUACCAAUCAAAAUGGGAGGGAGAAUCAACAGAGGAUUGAGCAUCA
# Target: MSI1 full-length (mouse, UniProt Q61474 1-362)
# Test: nsRBNS (natural sequence RNA bind-n-seq); RBNS binding buffer (assumed for nsRBNS): 25 mM Tris pH 7.5, 150 mM KCl, 3 mM MgCl2, 0.01% Triton X-100, 500 ug/ml BSA, 20 U/ml SUPERase-In, 4 C; UNK is unkempt and MSI1 is Musashi-1; names of the RNAs are library labels; protein concentration not given here; high values mean tight binding
# Sequence of UniProt Q61474 (Q61474 whole entry): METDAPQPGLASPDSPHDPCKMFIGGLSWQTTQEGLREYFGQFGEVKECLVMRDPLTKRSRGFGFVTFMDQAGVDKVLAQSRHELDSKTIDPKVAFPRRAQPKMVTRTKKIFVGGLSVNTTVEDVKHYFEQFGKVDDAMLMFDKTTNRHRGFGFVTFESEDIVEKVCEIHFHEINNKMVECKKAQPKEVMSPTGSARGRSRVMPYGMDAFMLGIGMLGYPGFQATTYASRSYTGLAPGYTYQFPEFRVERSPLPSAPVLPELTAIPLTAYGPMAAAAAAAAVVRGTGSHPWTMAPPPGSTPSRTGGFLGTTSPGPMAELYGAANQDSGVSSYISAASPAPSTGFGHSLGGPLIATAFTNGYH
row,Binder,binding signal
1,B1,0.369 enrichment R
2,B2,0.652 enrichment R
3,B3,0.51 enrichment R
4,B4,1.01 enrichment R
5,B5,0.3 enrichment R
6,B6,0.528 enrichment R

# From publication PMC12136788
